Laboratory results as given in PMC4336329 (PLoS ONE, 2015).
In all, about 310,000 compounds went through this assay and about 14,000 (4.5%) showed an effect of 50% or more. Effects have a minus sign here. This is one part of the list.

target: human ether-à-go-go-related gene (hERG) potassium channel (human, UniProt Q12809); experiment: primary screen, population patch clamp on CHO cells stably expressing hERG
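Further: peak tail current of the secondary pulse compared with the same well before compound.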

Chain of human ether-à-go-go-related gene (hERG) potassium channel (Q12809 whole entry, looked up): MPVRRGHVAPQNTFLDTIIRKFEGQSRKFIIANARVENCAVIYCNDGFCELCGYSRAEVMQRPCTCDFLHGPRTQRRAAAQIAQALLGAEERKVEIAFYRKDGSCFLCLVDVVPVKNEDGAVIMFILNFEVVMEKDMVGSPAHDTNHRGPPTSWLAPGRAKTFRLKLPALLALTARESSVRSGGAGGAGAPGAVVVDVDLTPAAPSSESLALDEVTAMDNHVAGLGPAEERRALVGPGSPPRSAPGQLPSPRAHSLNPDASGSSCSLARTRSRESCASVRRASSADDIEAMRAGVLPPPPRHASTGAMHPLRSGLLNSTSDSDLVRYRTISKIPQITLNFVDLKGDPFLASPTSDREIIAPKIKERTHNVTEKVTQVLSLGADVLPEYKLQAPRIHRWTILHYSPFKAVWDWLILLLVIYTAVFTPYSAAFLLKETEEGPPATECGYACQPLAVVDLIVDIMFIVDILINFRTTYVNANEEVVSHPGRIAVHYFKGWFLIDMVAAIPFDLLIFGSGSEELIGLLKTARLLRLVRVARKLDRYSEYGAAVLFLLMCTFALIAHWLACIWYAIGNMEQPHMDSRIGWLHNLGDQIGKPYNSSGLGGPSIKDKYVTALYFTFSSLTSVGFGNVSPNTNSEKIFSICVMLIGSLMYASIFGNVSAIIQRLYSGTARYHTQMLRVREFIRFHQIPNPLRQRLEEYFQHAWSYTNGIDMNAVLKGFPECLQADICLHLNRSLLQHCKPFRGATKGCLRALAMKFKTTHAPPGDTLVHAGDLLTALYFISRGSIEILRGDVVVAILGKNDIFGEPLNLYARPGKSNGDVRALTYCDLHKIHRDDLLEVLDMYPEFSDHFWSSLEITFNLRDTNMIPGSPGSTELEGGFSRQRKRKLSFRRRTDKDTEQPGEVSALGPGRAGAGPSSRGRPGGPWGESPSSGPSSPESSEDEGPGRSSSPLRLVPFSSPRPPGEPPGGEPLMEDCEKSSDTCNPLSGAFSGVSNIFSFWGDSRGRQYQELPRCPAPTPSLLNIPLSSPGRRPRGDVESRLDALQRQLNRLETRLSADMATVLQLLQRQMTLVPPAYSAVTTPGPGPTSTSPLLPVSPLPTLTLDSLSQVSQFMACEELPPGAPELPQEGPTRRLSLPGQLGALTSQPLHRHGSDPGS

Row | Compound | hERG current change (%, negative = inhibition) at 10uM [%]
1 | CCn1c(SCC(=O)N2CCCC2)nc2ccccc21 | 13.6
2 | COc1ccc(-c2cc(=O)oc3c(C)c(OC(C)C(=O)N4C[C@H]5C[C@@H](C4)c4cccc(=O)n4C5)ccc23)cc1 (stereo partly shown) | -47.2
3 | Cc1cccc2c(C(=O)N3CCN(C(=O)c4ccco4)CC3)cc(-c3cccc(Br)c3)nc12 | 4.09
4 | CC(Sc1cccc[n+]1[O-])C(=O)Nc1ccc(Oc2ccccc2)cc1 (stereo not shown) | -9.83
5 | Cc1ccc(N=Nc2[nH]c3ccccc3c2O)cc1 | 19.7
6 | CCCSc1nnc(NC(=O)Cc2ccc(OC)c(OC)c2)s1 | 4.66
7 | CCN(C(=O)COC(=O)c1nc2nc(C)cc(C)n2n1)C1CCS(=O)(=O)C1 (stereo not shown) | -18.2
8 | CCN(C(=O)COC(=O)c1ccccc1SCC(=O)N1CCCC1)C1CCS(=O)(=O)C1 (stereo not shown) | 9.06
9 | CCc1ccc(OCC(=O)NC(=S)Nc2ccc(C(C)=O)cc2)c(Br)c1 | -2.72
10 | CC1(C)COC(c2cccn2Cc2ccc(F)cc2Cl)=N1 | -0.439
11 | COC(=O)C1CC23C=CCN4CCC5(c6ccccc6NC15C2C)C43 (stereo not shown) | 8.9
12 | Cc1ccc2cccc(NC(=S)NC(=O)c3ccccc3)c2n1 | 6.97
13 | Cc1cc(NC(=O)CN2CCCCCCC2)no1.O=C(O)C(=O)O | 4.84
14 | CCOC(=O)C1(CCCc2ccccc2)CCN(C(=O)CCC2=NNC(=O)CC2)CC1 | 11.8
15 | COC(=O)C1=CN(c2ccc(OC)cc2)C=C(C(=O)OC)C1c1cc(OC)c(OC)cc1OC | -6.3
16 | CN(C)c1nc(-c2ccccn2)nnc1-c1ccccc1 | -0.724
17 | COc1ccccc1C1NC(=O)CCC1[N+](=O)[O-] (stereo not shown) | 17.6
18 | CCc1ccccc1NC(=O)N1CCC(NC(=O)C(Cc2ccccc2)NC(C)=O)CC1 (stereo not shown) | 13.9
19 | CCOC(=O)N1CCC(N(C(=O)Nc2ccc(Cl)c(Cl)c2)C(C)CC)CC1 (stereo not shown) | 6.19
20 | Brc1ccc2nc(N3CCN(c4ccccc4)CC3)sc2c1 | 31.8
21 | COc1ccc(C(=O)NC2CCN(CC(=O)NC3CCCCC3)CC2)cc1 | -17.3
22 | Cc1csc(SC(C)C(=O)NCC(=O)Nc2ccc(F)c(F)c2F)n1 (stereo not shown) | 21.8

Row | Compound | hERG current change (%, negative = inhibition) at 10uM [%]
23 | CCOC(=O)CSc1nnc(CSc2nc3sc4c(c3c(=O)[nH]2)CCCC4)n1-c1ccccc1 | -6.62
24 | CC1(C)Cc2cccc(OCC(=O)Nc3ccccc3F)c2O1 | 1.74
25 | Nc1nnnn1/N=C/c1cccs1 | 3.28
26 | CCOC(=O)CNC(=O)Cn1cnc2c(cnn2-c2ccc(C)cc2)c1=O | -1.61
27 | CC(c1ccco1)N(C(=O)c1ccc(C(F)(F)F)cc1)c1ccccn1 (stereo not shown) | 8.13
28 | Clc1cncc(Cl)c1N/N=C/c1ccccc1 | -1.37
29 | O=C(Nc1cccc(-c2cccc(Cl)c2)c1)C1CCN(Cc2ccccn2)CC1 | -77.8
30 | c1ccc(-c2nc(N3CCN(c4ccccc4)CC3)nc(-n3ccnc3)n2)cc1 | -2.66
31 | O=C(CSc1nnc(CN2CCOCC2)n1-c1ccc(Cl)cc1)N1CCc2ccccc21 | 8.46
32 | CCOC(=O)c1ccc(N2C(=O)C(CC(N)=O)N(CCc3ccc(OC)c(OC)c3)C2=S)cc1 (stereo not shown) | 16
33 | CCc1ccc(NC(=O)C2CCN(S(=O)(=O)c3ccc4c(c3)NC(=O)C(C)S4)CC2)cc1 (stereo not shown) | 19.2
34 | Cc1ccc(NC(=O)CCc2c(C)nn(-c3ccc(N4CCOCC4)nn3)c2C)cc1 | -6.61
35 | COc1nc(Cl)cn(-c2ccc(C)cc2)c1=O | -6.03
36 | O=C(Nc1ccc(Cl)cc1C(=O)NCCN1CCOCC1)c1ccco1 | -16.7
37 | COc1ccc(NC(=O)C2=C(C)Nc3nc(CCCO)nn3C2c2ccc(OC)c(OC)c2)cc1 (stereo not shown) | 13.8
38 | CCN(CC(=O)Nc1c(F)cccc1F)C(=O)c1ccc(=O)[nH]c1 | 18.2
39 | Cc1nc2cc(-c3cccc(F)c3)nn2c(C)c1CCC(=O)NC(C)CCc1ccco1 (stereo not shown) | -70.6
40 | Oc1ccc(F)c2cccnc12 | 18.2
41 | CCN(CC)c1ccc(NC(=O)c2c(OC)cccc2OC)c(C)c1 | 15.9
42 | N#CC1=C(S)N(c2ccc(F)cc2)C2(CCCCC2)NC1=O | 3.65
43 | COCCNC(=O)CN(Cc1cccs1)C(=O)CCC(=O)Nc1nccs1 | 10.4
